Reference: PubChem BioAssay AID1963576 (National Center for Advancing Translational Sciences (NCATS), 2024)
Out of some 46,000 compounds screened, about 60 (0.1%) were called active. Inconclusive results (about 3%) are left out. The call rests on the fitted dose curve; in most records, active means well fitted inhibition curve with a large enough effect; inconclusive means small, poorly fitted or top-dose-only effect; inactive means no such curve, though single readings can be large or run the other way. This is one part of the list.

experiment: Primary qHTS assay for Inhibitors of ovarian cancer metastasis using an organotypic tumor microenvironment (TME) model.; further: nearly all actives have a fitted effect of over 65% in size;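 on activity change, negative = inhibition: plate controls were DMSO wells for no effect and tomatine positive control wells for full effect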; conditions: SKOV3ip1-GFP adhesion/invasion on 3D omental model, fluorescence; series mostly up to 45.8 µM; activity change, negative = inhibition: at the top concentration
Method in brief: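 Adhesion/invasion was scored as fixed GFP-labeled SKOV3ip1 cell counts (488/509 nm), normalized to DMSO and tomatine controls. Cancer cells in serum-free medium, with four compound doses (0.36-46 umol/L), sat 2 hr at RT then 16 hr at 37 C on a 48 hr fibroblast/mesothelial/ECM culture.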

Activity change, negative = inhibition, inactive:
CCOC(=O)C1CCCN(S(=O)(=O)c2ccc(N3CCCCS3(=O)=O)cc2)C1 (stereo unspecified) 2.7%
CCN(C(=O)Cn1ncc2c(=O)oc3ccc(C)cc3c21)c1cc(OC)ccc1OC 6.4%
CCCOc1ccccc1C(=O)N1CCCCC1CCN1CCOCC1 (stereo unspecified) -6.54%
O=C(Nc1ccc2nc(SCCOc3ccccc3)sc2c1)c1cccs1 0.205%
COc1ccccc1CNC(=O)C1CCN(S(=O)(=O)c2c(C)noc2/C=C/c2c(C)cc(C)cc2C)CC1 6.34%
CN1CCN(C(=O)c2ccc3c(c2)N(Cc2cccc(Cl)c2)C(=O)c2ccccc2S3(=O)=O)CC1 -4.22%
CCCN1C(=O)C(O)(CC(=O)c2ccc(OC)c(OC)c2)c2ccccc21 (stereo unspecified) -2.6%
Cc1c(Cl)cccc1NC(=O)CN1C(=O)COc2ccc(S(=O)(=O)N3CCCCCC3)cc21 0.148%
Cc1coc2c(C)c3oc(=O)c(CC(=O)NCc4ccccc4)c(C)c3cc12 -5.78%
CCOc1ccccc1NC(=O)c1sc2nc(C)cc(C)c2c1N 9.15%
COc1cccc(CNC(=O)CSc2ncc3c(n2)-c2cc(Cl)ccc2N(C)S3(=O)=O)c1 -1.64%
COc1cc(O)c2c(c1)C(=O)c1cc(C)cc(O)c1C2=O -13.9% [at 23.2 µM]
CCOC(=O)c1cnc2c(C)cc(C)cc2c1NCCc1ccc(OC)c(OC)c1 -6.49%
COc1ccc(CNC(=O)Cn2c(=O)oc3cc(S(=O)(=O)N4CCC(C)CC4)ccc32)cc1 -0.94%
Cc1ccc(Cl)cc1-n1c(=O)c2sc3ccccc3c2n(CC(=O)NC2CCCCC2)c1=O 34.2%
Cc1cccc(C)c1NC(=O)c1nc(S(C)(=O)=O)ncc1N(Cc1ccc(F)cc1)Cc1ccco1 13.7%
Cc1ccc(C)n1-c1c(C(=O)NCC(C)c2ccccc2)sc2ncccc12 (stereo unspecified) -5.71%
O=c1c2sc3ccccc3c2n(Cc2ccccc2Cl)c(=O)n1Cc1ccccc1 8.13%
CCc1ccccc1NC(=O)Cn1c(=O)n(CCCS(=O)(=O)C2CCCCC2)c(=O)c2ccccc21 -1.85%
O=C(Cn1c(=O)c2ccccc2n(CC(=O)Nc2ccc(Cl)cc2)c1=O)NCCc1ccccc1 -12.7%
O=C(NCCc1csc(-c2ccc(C(F)(F)F)cc2)n1)C(=O)Nc1cc(F)ccc1F -8.07%
COc1ccc(C(=O)Oc2c(Sc3ccc(Cl)cc3)c(C)nn2C(C)(C)C)cc1OC -0.42%
CCOc1cccc(CNCCNC(=O)c2nonc2N)c1 -7.71%
O=S(=O)(Nc1cccc(-c2ccc(N3CCCCCC3)nn2)c1)c1ccc(F)cc1 -13.7%
CCOC(=O)c1[nH]c(C)c(CCC(=O)Nc2ccc(C(C)=O)cc2)c1C 4.71%
CCOc1ccc(C(=O)Nc2cccc(OCc3cc(=O)n4ccccc4n3)c2)cc1 -6.54%
CCN1CCC(N(Cc2ccc3c(c2)OCO3)C(=O)Nc2cc(F)ccc2F)CC1 1.26%
CCN(CC)C(=O)c1c(NC(=O)c2cccc(C)c2)sc2c1CCC(C)C2 (stereo unspecified) 1.55%
Cc1ccc(NC(=O)c2sc3nc(-c4cccs4)ccc3c2N)cc1F -7.24%
CCOC(=O)N1CCN([N+]([O-])=NOc2ccc([N+](=O)[O-])cc2[N+](=O)[O-])CC1 -4.51%
CCCCc1nnc(SCc2cc(=O)c3cc(F)ccc3[nH]2)n1C 2.91%
O=C(c1cnc(N2CCOCC2)c2ccccc12)N1CCN(c2ccccc2)CC1 5.75%
Cc1cc(C)c(-c2n[nH]c3c2C(c2ccccc2F)N(Cc2ccco2)C3=O)c(O)c1 (stereo unspecified) -22.3%
O=c1[nH]c2cc(Br)ccc2n2cccc12 -27%
Cc1ccc(-n2ncc3c(NC4CCCCCC4)ncnc32)cc1 -0.319%
COc1ccc(C(=O)NCCn2cc(SCc3c(F)cccc3Cl)c3ccccc32)cc1 -7.81%
COc1ccc(CNC(=O)CN2C(=O)CC(c3ccc(C)c(C)c3)=Nc3ccccc32)cc1 -1.22%
CCN(CC)CCSc1c(C(C)C)cnc2c1c(=O)n(C)c(=O)n2C 6.96%
CCOc1ccc(CNC(=O)CSc2nnc(C)c3c(C)n(-c4ccc(Cl)cc4)nc23)cc1 -8.04%
O=C(CN1C(=O)COc2ccc(S(=O)(=O)NC3CCCC3)cc21)NCc1ccc(Cl)cc1 -0.371%
COc1cc(NC(=O)N2CCc3c(sc4c3CCCC4)C2c2ccccc2)cc(OC)c1OC (stereo unspecified) 2.69%
COc1ccc(OC)c2sc(N3CCN(C(=O)c4ccco4)CC3)nc12 3.2%
CN1CCN(C(=O)C(=O)Nc2c3c(nn2-c2ccc(Cl)cc2)CSC3)CC1 1.88%
Cc1c(C(=O)N2CCC(C)CC2)c(S(=O)(=O)N(Cc2ccccc2)C(C)(C)C)c(C)n1C 5.37%
COC(=O)c1ccc(C(=O)OC)c(NC(=O)CN(c2ccccc2)S(=O)(=O)N(C)C)c1 -11.4%
Cc1ccc(NC(=O)Nc2nnc(N3CCCC3)s2)cc1C 6.52%
CCC(=O)NCCc1nc2cc(NC(=O)c3cccc(Br)c3)ccc2n1C 1.68%
Cn1c(=O)c(C(=O)O)nn(-c2ccccc2)c1=O 4.29%
Cc1ccc(N2C(=O)CCSC23C(=O)N(Cc2ccccc2)c2ccccc23)cc1 (stereo unspecified) 1.64%
CCN(CC)C(=O)c1ccc2c(c1)N(Cc1ccc(C(F)(F)F)cc1)C(=O)c1ccccc1S2 -26.5%
Clc1ccc(-n2ncc3c(NC4CCCC4)ncnc32)cc1 -3.46%
Cc1cc(C)c(NC(=O)Cn2c(=O)n(CCC(=O)N3CCc4ccccc4C3)c(=O)c3ccccc32)c(C)c1 -3.52%
CCN(CC)S(=O)(=O)c1ccc2c(c1)N(CC(=O)N1CCN(c3cccc(C)c3C)CC1)C(=O)CO2 -20%
Cc1ccc(Cn2c3ccccc3c3cnn(CC(=O)Nc4cc(Cl)ccc4C)c(=O)c32)cc1 -5.22%
O=C(NCc1ccccc1Cl)c1ccc(CS(=O)(=O)c2ccc(Br)cc2)o1 4.08%
COc1ccc(Nc2ncnc3sc4c(c23)CCCC4)cc1 2.03%
CCOC(=O)C1CCCN(c2nc3c(S(=O)(=O)c4ccc(CC)cc4)nnn3c3ccc(Cl)cc23)C1 (stereo unspecified) -1.27%
COc1ccc(C)cc1NC(=O)Nc1nnc(N2CCCCC2)s1 1.02%
O=C(CSc1n[nH]c(-c2ccccc2Cl)n1)NCCc1ccccc1 10.7%
CCCS(=O)(=O)N1CC(=O)N(c2cccc(F)c2)C(C)(C(=O)NC2CCCCCC2)C1 (stereo unspecified) 4.5%
CCOC(=O)c1c(C)[nH]c(CCC(=O)Nc2ccccc2C(F)(F)F)c1C -6.31%
CCc1ccc(NC(=O)CSc2nnc3[nH]c(=O)cc(-c4ccccc4)n23)cc1 2.66%
CCN(C(=O)CCc1nc(-c2ccc(C)cc2)no1)c1cccc(C(F)(F)F)c1 -5.96%
COc1ccc(Cn2ccc3nc(C)c(C(=O)N4CCN(c5cccc(OC)c5)CC4)cc3c2=O)cc1 3.46%
CCCCC1CCC(C(=O)N2CC(=O)Nc3ccc(C)cc3C2c2ccc(F)cc2)CC1 (stereo unspecified) -15.7%
COc1ccc(NC(=O)c2c(NC(=O)C(F)(F)F)sc3c2CCCCC3)cc1 3.03%
COc1ccc(CNC(=O)c2ccc3c(O)c(S(=O)(=O)c4ccccc4)c(=O)[nH]c3c2)cc1 6.43%
CS(=O)(=O)N(Cc1ccccc1)c1ccc(C(=O)Nc2cccc(Cl)c2)cc1 -5.6%
Cc1cccc(N2CCN(C(=O)c3nn(C)c4c3CS(=O)(=O)c3ccccc3-4)CC2)c1C -17.6%
Cc1cc(NS(=O)(=O)c2ccc(N)cc2)no1 -0.991%
COc1ccc(CN2CCc3c(c(=O)n4ncc(C(=O)N5CCN(c6ccccc6F)CC5)c4n3C)C2)cc1 4.59%
COC(=O)c1ccc2c(=O)n3nc(Nc4ccc(F)cc4F)sc3nc2c1 1.59%
COc1cc(CNc2ccc3[nH]c(=O)[nH]c3c2)ccc1OCc1ccc(F)cc1Cl 1.72%

outcome, inactive:
O=C(Nc1ccccc1F)c1nc(SCc2ccc(F)cc2)ncc1Cl
CCc1ccc(NC(=O)c2ccc(F)c(S(=O)(=O)NC3CCCCCC3)c2)cc1
COc1cccc(CNC(=O)CN2C(=O)CSc3c2c(C)nn3-c2ccccc2)c1OC
Cc1cc(-c2ccc(C)c(S(=O)(=O)Nc3ccccc3C(F)(F)F)c2)on1
COc1ccc(C(=O)N(Cc2ccc(N(C)C)cc2)Cc2ccco2)cc1Cl
Cc1c(CCNC(=O)Cc2ccc(F)cc2)sc2nc(-c3ccc(F)cc3)nn12
CCCCN(C)CCNC(=O)C1CCCN(S(=O)(=O)c2ccc3c(c2)oc(=O)n3C)C1 (stereo unspecified)
COc1ccc(NC(=O)CCCn2c(=O)c3cccn3c3ccccc32)c(OC)c1
O=C1C(c2cccc(Br)c2)N(CCc2ccccc2)C(=O)CN1C1CCCCC1 (stereo unspecified)
Cc1cccc(CNS(=O)(=O)c2csc(C(N)=O)c2)c1
Cc1ccccc1NS(=O)(=O)c1nnc(NC(=O)c2ccc(Cl)cc2)s1
CC(C)(C)NC(=O)C1CCN(c2nc3ccccc3nc2C(F)(F)F)CC1
COc1ccc(-c2cc(C(F)(F)F)nc(SCCC(=O)Nc3ccc(OC)c(OC)c3)n2)cc1
COc1cccc(CNC(=O)CSC2=Nc3ccccc3N=C(c3ccc(F)cc3)C2)c1
CCOCCCn1c(=N)c(C(=O)NCc2cccnc2)cc2c(=O)n3ccccc3nc21
Cc1c(CNC2CCCCC2)c(C(=O)O)c(C)n1Cc1ccc(Cl)cc1
CCOC(=O)C1CCN(C(=O)Cn2nc(CC)n3c(cc4sccc43)c2=O)CC1
Cn1nnnc1SCCCNCc1ccccc1OCc1ccc(Cl)cc1
CC(NC(=O)Cn1ccc2cc(S(=O)(=O)N3CCCCCC3)ccc21)c1ccccc1 (stereo unspecified)
COc1ccc(N2CCN(C(=O)c3cccn3-c3nnc(N4CCCC4)s3)CC2)cc1
CCc1nn(CCCC(=O)NCc2ccc(OC(C)C)cc2)c(=O)c2cc3occc3n12
O=C(CCS(=O)(=O)c1cc2c(cc1Cl)NC(=O)CO2)NCCc1ccccc1
COc1ccc(C(=O)Nc2ccc(S(=O)(=O)Nc3cc(C)nc(C)n3)cc2)cc1
